{
  "source": "PubChem BioAssay AID588453",
  "about": "(National Center for Advancing Translational Sciences (NCATS), 2011)",
  "note": "The campaign covered roughly 390,000 compounds. About 4,000 (1%) were called active. This list was built around the results that the source calls inconclusive (neither active nor inactive); the mix of calls is not that of the screen. Calls come from the whole dose curve; as a rule, active = well fitted inhibition curve with a large enough effect; inconclusive = small, poorly fitted or top-dose-only effect; inactive = no such curve, though single readings can be large or run the other way. A potency beside an inconclusive call is a rough fit, not a confirmed value.",
  "data": [
    {"molecular_target": "Thioredoxin reductase 1, cytoplasmic (Rattus norvegicus) (UniProt O89049)", "sequence (O89049 whole entry, looked up)": "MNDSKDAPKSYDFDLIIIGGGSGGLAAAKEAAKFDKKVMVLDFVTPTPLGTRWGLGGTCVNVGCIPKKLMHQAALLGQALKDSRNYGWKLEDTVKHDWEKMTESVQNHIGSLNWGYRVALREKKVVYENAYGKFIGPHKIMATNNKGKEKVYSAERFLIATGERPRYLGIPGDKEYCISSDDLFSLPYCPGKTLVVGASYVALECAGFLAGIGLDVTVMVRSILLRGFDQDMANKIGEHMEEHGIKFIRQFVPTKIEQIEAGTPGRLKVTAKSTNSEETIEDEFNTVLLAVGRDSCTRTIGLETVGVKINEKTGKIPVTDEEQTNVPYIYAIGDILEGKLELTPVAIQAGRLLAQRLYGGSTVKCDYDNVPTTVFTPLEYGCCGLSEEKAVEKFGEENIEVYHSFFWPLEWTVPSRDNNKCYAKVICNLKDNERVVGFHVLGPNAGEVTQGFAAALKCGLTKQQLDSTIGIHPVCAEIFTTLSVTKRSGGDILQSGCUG", "test": "qHTS Assay for Inhibitors of Mammalian Selenoprotein Thioredoxin Reductase 1 (TrxR1): qHTS; note: nearly all actives have a fitted effect of over 65% in size; note: potency is the fitted concentration of half-maximal effect; tags give direction and shape of the fitted curve; for activity change, negative = inhibition: % is set by controls: 0 for no effect and ±100 for the full control effect", "settings": "recombinant rTrxR1, NADPH fluorescence consumption, selenite substrate; series mostly up to 114 µM; activity change, negative = inhibition: at the top concentration", "summary_of_the_method": "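Rat TrxR1 (90 nM in the dispensed reagent) was pre-reduced with 400 uM NADPH for 5 min at room temperature, then incubated with compound for 15 min. After 400 uM selenite was added, NADPH fluorescence (Ex 340/Em 450 nm) was followed for 8 min.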", "values": [
      {"molecule": "COc1ccccc1C(C(=O)NCc1ccccc1)N(C(=O)c1csnn1)C1CC1", "note": "(stereo unspecified)", "activity change, negative = inhibition": "inactive: 11.5% [at 57.1 µM]"},
      {"molecule": "c1nc(NCC2(N3CCOCC3)CCCCC2)c2ccsc2n1", "Potency": "inconclusive: 35.5 µM [inhibitor, single point]"},
      {"molecule": "CN(C)C(=O)c1nc2ccc(Cl)cn2c1CN1CCN(c2ncccn2)CC1", "Potency": "inconclusive: 89.1 µM [inhibitor, single point]"},
      {"molecule": "CC1(C)CC(=O)C(C(c2cc([N+](=O)[O-])ccc2Cl)C2C(=O)CC(C)(C)CC2=O)C(=O)C1", "Potency": "inconclusive: 35.5 µM [inhibitor, partial curve]"},
      {"molecule": "CN(C)CCn1nnnc1SCC1=C(C(=O)O)N2C(=O)[C@@H](NC(=O)Cc3csc(N)n3)[C@H]2SC1", "Potency": "inconclusive: 79.4 µM [inhibitor, single point]"},
      {"molecule": "N[C@@H](CCCC(=O)O)C(=O)O", "Potency": "inconclusive: 0.1 µM [inhibitor, full curve, poor fit]"},
      {"molecule": "O=C(Nc1sc2c(c1-c1nc3ccccc3[nH]1)CCCC2)C1CCCC1", "Potency": "inconclusive: 70.8 µM [inhibitor, single point]"},
      {"molecule": "Cc1cc(O)c(C(c2ccccc2Cl)N2CCCCC2)c(=O)n1Cc1ccco1", "note": "(stereo unspecified)", "Potency": "inconclusive: 14.1 µM [inhibitor, partial curve]"},
      {"molecule": "O=C(OCc1ccco1)c1cccnc1", "Potency": "inconclusive: 89.1 µM [inhibitor, single point]"},
      {"molecule": "Clc1cccc(-c2ccc(C3Nc4cccc5cccc(c45)N3)o2)c1", "Potency": "inconclusive: 44.7 µM [inhibitor, partial curve]"},
      {"molecule": "CSCCC(NC(=O)C1CCCCC1)C(=O)Nc1ccc(F)c(Cl)c1", "note": "(stereo unspecified)", "activity change, negative = inhibition": "inactive: 6.64%"},
      {"molecule": "O=c1[nH]c2cc(C(F)(F)F)ccc2n1-c1cc(C(F)(F)F)ccc1O", "Potency": "inconclusive: 89.1 µM [inhibitor, partial curve]"},
      {"molecule": "CC(C)OC(=O)C(C(=O)C(F)(F)F)c1cc(NS(=O)(=O)c2ccc3ccccc3c2)c2ccccc2c1O", "note": "(stereo unspecified)", "Potency": "inconclusive: 56.2 µM [inhibitor, single point]"},
      {"molecule": "CCOc1ccc(C(=O)C(CCC(CN(C)C)C(=O)c2ccc(OCC)cc2)CN(C)C)cc1", "note": "(stereo unspecified)", "Potency": "active: 2.82 µM"},
      {"molecule": "Cc1csc2c(N3CCN(C(=O)NC(C)(C)C)CC3)ncnc12", "activity change, negative = inhibition": "inactive: 30% [at 57.1 µM]"},
      {"molecule": "C=C(C)CSc1ncc(-c2cccc(C(F)(F)F)c2)cn1", "Potency": "inconclusive: 3.55 µM [inhibitor, full curve, poor fit]"},
      {"molecule": "NS(=O)(=O)c1ccc(CCNC(=O)CN2CCN(c3ccc(F)cc3)CC2)cc1", "activity change, negative = inhibition": "inactive: 5.3%"},
      {"molecule": "N[C@@H](Cc1ccc(O)cc1)C(=O)NO", "activity change, negative = inhibition": "inactive: 15.6%"},
      {"molecule": "Nc1c(C(=O)Nc2ccccc2F)sc2nc(Cc3ccccc3)cc(C(F)(F)F)c12", "activity change, negative = inhibition": "inactive: 1.2% [at 57.1 µM]"},
      {"molecule": "COC(=O)C1=C(C)NC2=C(C(=O)c3ccccc32)C1c1ccc(-c2ccc(C(=O)O)cc2)o1", "note": "(stereo unspecified)", "Potency": "inconclusive: 70.8 µM [inhibitor, single point]"},
      {"molecule": "CC1CCCCN1C(=O)COC(=O)c1ccc2c(c1)C(=O)N(Cc1ccco1)C2=O", "note": "(stereo unspecified)", "Potency": "inconclusive: 56.2 µM [inhibitor, partial curve, poor fit]"},
      {"molecule": "Cc1ccc(CNC(=O)CCCOc2cc(=O)n(C)c3ccccc23)o1", "Potency": "active: 39.8 µM"},
      {"molecule": "O=C(NCc1n[nH]c(=S)n1-c1ccc(F)cc1)c1ccc(S(=O)(=O)N2CCCC2)cc1", "Potency": "inconclusive: 15.8 µM [inhibitor, partial curve, poor fit]"},
      {"molecule": "O=[N+]([O-])c1ccc(S(=O)(=O)c2ccccc2)nc1", "Potency": "inconclusive: 0.355 µM [inhibitor, partial curve, poor fit]"},
      {"molecule": "COCCn1c(=S)[nH]c2cc(C(=O)N(CCO)Cc3ccccc3)ccc2c1=O", "activity change, negative = inhibition": "inactive: -1.03%"},
      {"molecule": "Fc1ccc(CNc2ccc(N3CCN(Cc4ccccc4)CC3)cc2)cc1", "activity change, negative = inhibition": "inactive: 13.2%"},
      {"molecule": "Cc1ccc([C@@H]2CC=C(C(=O)O)[C@H](c3ccc(Cl)cc3)N2S(=O)(=O)c2ccccc2C)cc1", "activity change, negative = inhibition": "inactive: 7.14%"},
      {"molecule": "CN(C)c1ccc(-c2nc3ccccn3c2Nc2ccc3c(c2)OCCO3)cc1", "Potency": "inconclusive: 100 µM [inhibitor, single point]"},
      {"molecule": "CCOC(=O)c1ccc(N2C(=O)C3CC=C(C)CC3C2=O)cc1", "note": "(stereo unspecified)", "Potency": "inconclusive: 89.1 µM [inhibitor, single point]"},
      {"molecule": "Cc1ccc(NC(=O)C2=C(O)CCn3c2nc2ccccc23)cc1", "activity change, negative = inhibition": "inactive: 7%"},
      {"molecule": "CCNc1oc(COc2ccccc2F)nc1C#N", "Potency": "inconclusive: 25.1 µM [inhibitor, single point]"},
      {"molecule": "CCCOc1ccccc1C(=O)Nc1nc2c(s1)CCCC2", "Potency": "inconclusive: 79.4 µM [inhibitor, single point]"},
      {"molecule": "CC(C)c1ccc(NC(=O)CSC2=Nc3ccccc3C3=NC(CC(=O)NCc4ccco4)C(=O)N23)cc1", "note": "(stereo unspecified)", "activity change, negative = inhibition": "inactive: 9.9% [at 57.1 µM]"},
      {"molecule": "O=C(NCc1nnc(SCc2ccc(F)cc2)n1-c1ccc(F)cc1)C12CC3CC(CC(C3)C1)C2", "activity change, negative = inhibition": "inactive: -11.5%"},
      {"molecule": "O=[N+]([O-])/C=C\\c1ccc(N2CCOCC2)cc1", "Potency": "inconclusive: 15.8 µM [inhibitor, partial curve]"},
      {"molecule": "Fc1ccc(/C=C/c2ccc3ccccc3n2)cc1", "Potency": "inconclusive: 50.1 µM [inhibitor, partial curve]"},
      {"molecule": "COc1cccc(NS(=O)(=O)c2ccc3[nH]cc(C(=O)N(C)Cc4ccco4)c(=O)c3c2)c1", "Potency": "inconclusive: 63.1 µM [inhibitor, partial curve, poor fit]"},
      {"molecule": "COc1ccccc1Nc1nc(-c2cccc([N+](=O)[O-])c2)nc2ccccc12", "activity change, negative = inhibition": "inactive: -16.7%"},
      {"molecule": "COc1ccc(C2=NN(c3nc(-c4ccccc4)c(CC(=O)O)s3)C(c3ccco3)C2)cc1", "note": "(stereo unspecified)", "Potency": "inconclusive: 39.8 µM [inhibitor, partial curve]"},
      {"molecule": "COC(=O)C1=C(C(=O)OC)SC2(S1)C(C(=O)OC)=C(C(=O)OC)SC1=C2c2cc(C)ccc2NC1(C)C", "activity change, negative = inhibition": "inactive: -12% [at 57.1 µM]"},
      {"molecule": "O=C(N/N=C/c1ccc(N2CCOCC2)s1)c1ccc(NS(=O)(=O)c2cccs2)cc1", "Potency": "inconclusive: 28.2 µM [inhibitor, partial curve]"},
      {"molecule": "CCOC(=O)NC1(Nc2cccc(Cl)c2)Oc2ccccc2O1", "Potency": "inconclusive: 44.7 µM [inhibitor, partial curve]"},
      {"molecule": "O=C(CCN1CCOCC1)c1ccccc1", "Potency": "inconclusive: 0.794 µM [inhibitor, partial curve, poor fit]"},
      {"molecule": "COc1ccccc1OCC(=O)Sc1ccc(C)cc1", "Potency": "inconclusive: 3.16 µM [inhibitor, full curve]"},
      {"molecule": "CCC1Oc2ccc(C)cc2N(CC(=O)N(Cc2cccnc2)Cc2ccc(C)o2)C1=O", "note": "(stereo unspecified)", "Potency": "inconclusive: 56.2 µM [inhibitor, single point]"},
      {"molecule": "CC(C)(C)n1ncc2c(=O)n(Cc3cc(F)ccc3Cl)cnc21", "activity change, negative = inhibition": "inactive: -10.5%"},
      {"molecule": "CCOC(=O)c1cc(NC(=O)c2ccco2)ccc1N1CCOCC1", "Potency": "inconclusive: 39.8 µM [inhibitor, single point]"},
      {"molecule": "C[c-]1[c-](C)[c-](C)[c-](C)[c-]1C.[Fe].c1cc2nccc(N3CCCC3)[c-]2c1", "note": "(stereo unspecified)", "Potency": "inconclusive: 28.2 µM [inhibitor, full curve, poor fit]"},
      {"molecule": "CCNC(=S)Nc1cc(C)ccn1", "Potency": "inconclusive: 10 µM [inhibitor, full curve]"},
      {"molecule": "O=C(N=C1SC2CS(=O)(=O)CC2N1Cc1ccccc1Cl)C1CCCO1", "note": "(stereo unspecified)", "Potency": "inconclusive: 28.2 µM [inhibitor, single point]"},
      {"molecule": "CC(=O)O[C@H]1C2OC(=O)C(C)=C2[C@@H]2OC(=O)[C@]3(CCC4OC41C)OC23", "note": "(stereo partly specified)", "Potency": "inconclusive: 50.1 µM [inhibitor, partial curve]"},
      {"molecule": "C/C(CC(=O)Nc1ccc(OCc2ccccc2)cc1)=N\\NC(=O)C(=O)Nc1cccc(C)c1", "Potency": "inconclusive: 70.8 µM [inhibitor, partial curve]"},
      {"molecule": "O=C(C(=O)N1CCCc2ccccc21)c1c[nH]c2ccccc12", "activity change, negative = inhibition": "inactive: 25.6%"},
      {"molecule": "Clc1ccc(OCCn2c(-c3ccco3)nc3ccccc32)cc1", "Potency": "inconclusive: 50.1 µM [inhibitor, partial curve, poor fit]"},
      {"molecule": "Cn1c(=O)c2[nH]c(-c3ccccc3)c(O)c2n(C)c1=O", "Potency": "inconclusive: 79.4 µM [inhibitor, single point]"},
      {"molecule": "CCN1CCCC1CN(Cc1cc2cc(C)cc(C)c2[nH]c1=O)C(=O)Nc1ccccc1OC", "note": "(stereo unspecified)", "Potency": "inconclusive: 39.8 µM [inhibitor, single point]"},
      {"molecule": "Cc1ccccc1Nc1nc(N)nc(COC(=O)c2ccc([N+](=O)[O-])o2)n1", "Potency": "inconclusive: 25.1 µM [inhibitor, full curve]"},
      {"molecule": "COc1ccc(CNC(=O)c2ccc(CS(=O)Cc3ccc(Cl)cc3)o2)cc1", "note": "(stereo unspecified)", "Potency": "inconclusive: 39.8 µM [inhibitor, partial curve]"},
      {"molecule": "O=C(Nc1cccc(C(=O)O)c1)/C(=C\\c1ccc2c(c1)OCO2)NC(=O)c1ccc(Br)cc1", "Potency": "inconclusive: 79.4 µM [inhibitor, partial curve]"},
      {"molecule": "CCCCCn1c(=O)[nH]c2cc(C(=O)NCCN3CCOCC3)ccc2c1=O", "Potency": "inconclusive: 28.2 µM [inhibitor, single point]"},
      {"molecule": "CC(=NNc1ccc([N+](=O)[O-])cn1)c1ccc(N)cc1", "Potency": "inconclusive: 79.4 µM [inhibitor, partial curve]"},
      {"molecule": "COc1ccc(/C=c2\\[nH]c(=O)/c(=C/c3ccc(OC)cc3)[nH]c2=O)cc1", "activity change, negative = inhibition": "inactive: 21.4%"},
      {"molecule": "CS(=O)(=O)N1N=C(c2ccco2)CC1c1ccc(Cl)cc1", "note": "(stereo unspecified)", "Potency": "inconclusive: 50.1 µM [inhibitor, partial curve, poor fit]"},
      {"molecule": "Cc1c(Cl)cccc1NC(=O)CCC(=O)N/N=C/c1ccc[nH]1", "activity change, negative = inhibition": "inactive: -20.9%"},
      {"molecule": "O=C(Nc1nc(-c2ccccn2)cs1)c1ccc(F)c(S(=O)(=O)N2CCOCC2)c1", "Potency": "inconclusive: 50.1 µM [inhibitor, partial curve]"},
      {"molecule": "CCOc1ccc(C(C)=O)cc1COC(=O)CNC(=O)c1cccs1", "Potency": "active: 22.4 µM"}
    ]}
  ]
}
